The values below come from the supplement of paper PMC10681739.

Over roughly 2,700 sequences, “arbitrary fluorescence units” has its median near 4,100; the highest 2% begin near 54,000. The list shows a part of the results.

This test concerns the target T1, ETS1 (UniProt P14921).
T1 sequence: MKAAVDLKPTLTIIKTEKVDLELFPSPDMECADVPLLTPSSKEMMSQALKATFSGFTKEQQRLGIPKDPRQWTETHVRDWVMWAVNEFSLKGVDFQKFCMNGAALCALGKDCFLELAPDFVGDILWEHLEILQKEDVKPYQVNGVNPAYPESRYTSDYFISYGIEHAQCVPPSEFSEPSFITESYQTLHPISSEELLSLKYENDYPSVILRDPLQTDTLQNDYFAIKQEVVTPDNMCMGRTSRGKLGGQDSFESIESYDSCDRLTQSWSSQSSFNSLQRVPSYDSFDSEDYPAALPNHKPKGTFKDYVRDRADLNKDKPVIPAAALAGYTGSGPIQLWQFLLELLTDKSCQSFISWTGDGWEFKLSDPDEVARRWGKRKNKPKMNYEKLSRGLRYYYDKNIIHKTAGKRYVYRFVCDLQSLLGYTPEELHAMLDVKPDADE
Nature of the test: ETS1 binding intensity (PBM fluorescence) (arbitrary fluorescence units); higher = stronger binding. The note with it: ETS1 concentration 10 nM. As to the method: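 gcPBM on wild-type 36-bp genomic probes with two neighbouring ETS1 sites (4-24 bp apart). Recombinant human ETS1 (10 nM) was detected with anti-ETS1 antibody fluorescence. Values are medians over 3 replicate spots. The probes sit in constant array flanks that are not printed.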
Take ACAGAGGAAATCTAAGTCCGTTTGACAGGAAGCTCA: the ETS1 binding intensity stood at 589.

With TGGATGAGGAAGCCACTAGGGTCTCAGGAAGTCCCC, the ETS1 binding intensity stood at 185. Sequence AGATAAAGAAGTTTCCTCACATCCGGGGCTGCCTTT came in with an ETS1 binding intensity of 6930. Under TTACCCGGAACTACTTAGCCCAGGGTTTCCTGAGTG stands 480; under CTGATCTTTCTATTTCCTGTTTCCTGCCTAAGACTA, 20100; under TCCACTTCCTAGTCCGCCAATTATCATTTCCGGTGA, 16500. Under AAATTTCAAGGAAACATTACCTATTTCCTATATAAT stands 227. To ATGGGCCAATGGGAAGTGACACGGAAGTACGGATTG belongs 517. Consider CGCATGGCATCCTGGAGCCGGCACAGGAAGTGGTTA, for which the ETS1 binding intensity was 4530.

Sequence CTCTAGGTCTAACATCCCTCGGAAGTTCGTGCAGCG yielded an ETS1 binding intensity of 175. To GCCGGCGAGCGGAAGAGGCTGCAGGAAGGCCGGCCC belongs 3170.

AGCGCGCGCCCGCGGAAGGCGGAAGTGGGCGGTGCC gave an ETS1 binding intensity of 2620. To ACCCACTTCCTGCAGCACCCACACACTTCCTGGGGC belongs 31700. To GAAGTGGAGGAAATGTTTGAACACGGATGTGGGGTC belongs 423; to CAGCGCCCGGACTTCCTCCCTTTCCGCTGCGCGAGG, 5240; to AGCACAGAGGAAGCTGCGGGGTCCGGAAGAAAAAAA, 525. To TTCCGAGAGGAAACGTTCCCTACGCTTCCCGGAGAG belongs 393.

CCGCGGGGGAGGAAATAAGAGCCGGAAGACACAAAA gave an ETS1 binding intensity of 1920. For AGGGCACTGAAAGGAAGGGGTTCCGGGCTGGGGAGG, the ETS1 binding intensity was found to be 604. As for TTTCTTCCGGCCCGGCAAGGCGAGAGGAGGAAGCGG, the ETS1 binding intensity is 24300. In turn, GAGCGACGGAAGCAGCCGCTCTTAGTTTCCGGCAAC gave an ETS1 binding intensity of 3420.

In turn, CGCCCGGATCACACCGCCGACCTCGGGCTTCCTGAG had an ETS1 binding intensity of 173. TCCACCGCCCGCTTCCTGTTTATCCGCACTGCGCTT came in with an ETS1 binding intensity of 22500. To GGGTATGTGGTTTCCTCACACTTCCTGAGTTTATGT belongs 2900. Under TAACAGGAAGCATGACTAGGAGCCCTCAGGAAACTT stands 1510; under CTCGCTGGGCCGGAAGGGACCGGGAAATTCCAAGCC, 3470. Under TAGTTTCCTGCCTTAAAGAGCCTTTACAGGAAATTG stands 25200. Take CCAGGGAGCACTTCCTATTGCAGGAAGAACAATTCC: the ETS1 binding intensity was 7660. AAACCAGGAAGACCTACTAGGAGGACGGAAGTCGAA: the ETS1 binding intensity was found to be 538.

Sequence GGGCGGGACTTCCGGCAAGGCGCGGAAGCGGCGGTA came in with an ETS1 binding intensity of 46400. In turn, GTCAGCAGGATGCAGGTGCTACACAGGAAGGTGTCT gave an ETS1 binding intensity of 982. To GGCCGCCCCTGCGGATGTGAGGAAATCAGTAGCGTG belongs 1410; to CACGCCTATAATCCAGCTATTCAGGAAGCGGAAGCA, 423; to CATTTCACAGGAAATAATCTAAGGGATGTGTGTGTG, 2450. In the case of TGAGAAACCACATCCTGCTCAGGAAGCCAAGCACCC, the ETS1 binding intensity is 16000. In the case of CGAGCCGGAATCGAACCAGCGACCTAAGGATGTCCG, the ETS1 binding intensity was determined as 331.

As to GCCCCGGCCCCACGGATACTTCCGCGCCTGTCAGAC, the ETS1 binding intensity is 1010.

Sequence CAAGCCACAGGAAACCTCCAGCAGGAAGTCGGGCTG came in with an ETS1 binding intensity of 1970. Consider TAGAATGTATCCTGTCCTGAGTCATTTCCCTCTTTG, for which the ETS1 binding intensity was found to be 7380. On to ACTACCTTTCGGGGATGTGGTTTCCGCCCTTCTTCT, for which the ETS1 binding intensity was determined as 2000. GAGGTGCCGCAGGATGTAACGGGATGTGCACTATGC registered an ETS1 binding intensity of 1170. CACCTCCTTCCTGGACTCCCCTCTCTTCCTGCCCAG came in with an ETS1 binding intensity of 4840.

On to CACAGGATGGGGGCATGGCATTTGGGCAGGAAATGC, for which the ETS1 binding intensity was found to be 835. Under GTCCCCTTCCTAATGACTCTGAGGCAGGATATGACA stands 642.

Sequence GCCAATTTTCCACTTCCGCTTCCGGCGCTGCGGCAG yielded an ETS1 binding intensity of 35200. As for GCTCTCATTTCCTGCTTTATAAAAGGAAGTGAAGCC, the ETS1 binding intensity worked out at 28900. Under ACCCAGTCATTTCCTGTTGCACTTCCTTGTTTATTT stands 22100.

The sequence AATGAATAAAAAAGGAAACAGGAAGCAGTCCTGGGT yielded an ETS1 binding intensity of 2150. Take CACCAACTGACATTTCCCCATCCTGTTTTTGGAGGG: the ETS1 binding intensity was 856. Under GGGGCAGTCTCCCTTCCGGCTTCCGGGACCGAAGGG stands 16200; under GATTTATGAATTTCCTGTGGGCTTCCTGGCAGCCAT, 13500. To CTCCTGGGAAATGTAGTTCATAGGGTTTCCGCCTTG belongs 232; to CGCGCTCCGTTTCCTAGGAGCCGGGAAATGGTCGCC, 468. Under TTTACCGGAAGTCGGAGGGGTCAGACGGAAGCAGAA stands 28400; under GGCCTCAGGAAGCCTCCAATCATGGCGGAAGGCAAG, 203. In the case of GTTTTCTTGTTTCCGCTGCTATTTCCTGCTTGGGTT, the ETS1 binding intensity came out at 18900. To ACACGCCGAGCAGGATGAAGAGGAAGTTGCCCAGGC belongs 384; to CGCGGCGCTTCCGCGCCAGTTGGAGTTCCGGGTGGG, 3570; to CACCACGTTTTTCCGCAGTAACCGGATGACTCCTAC, 753. Under ATTTTTTCCTGAACACTCTGAAATATCAGGAAGTAT stands 343. As for TTACATCCTGTCCTGCACACACCCATACATCCTGTT, the ETS1 binding intensity was found to be 48700. On to TCAACATCCTGCTTCTCAGGGCACCACAGGAAATGT, for which the ETS1 binding intensity stood at 36600.
